Read counts are not given, so values of variants with three or more changes are uncertain.

First the molecules themselves.
B1: CPEB3 Ribozyme (parent)
chain: UAACAGGGGGCCACAGCAGAAGCGUUCACGUCGCAGCCCCUGUCAGAUUCUGGUGAAUCUGCGAAUUCUGCUGUAUAUCUC

The variants in this series derive from B1. Nature of the series: self-cleavage, relative activity (ratio to wild type); higher = more cleavage; in vitro, sequencing. The procedure, abridged:
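Libraries of CPEB3 self-cleaving ribozyme mutants came from rounds of error-prone PCR and carried barcodes, which DNA sequencing matched to variants. In vitro transcription used T7 RNA polymerase at 37°C for 5 hours, with a further 15 min in DNase I before EDTA stopped the reaction; the ribozymes cleaved during both steps. The RNA was reverse transcribed with template switching and sequenced on Illumina. Relative activity is the cleaved/total read fraction of a variant divided by that of the unmutated ribozyme, averaged over three batches with at least 5 reads.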
A28C A45G U60A: the self-cleavage amounted to 0.28.
On to U26C U31C U41A C62U U66C A75G, for which the self-cleavage was 0.13.
On to U26C C32U U69A U72A, for which the self-cleavage amounted to 0.1.
With A28G A65G U72A U78C, the self-cleavage is 0.08.
Regarding U26G A47U U74C C81U, the self-cleavage was found to be 0.29.
In the case of U26C A47G U76C, the self-cleavage worked out at 0.49.
Take C27U U41A G46U U49C: the self-cleavage stood at 0.24.
For the variant U26C C29G A45G U74A, the self-cleavage is 0.04.
For the variant U26C U31C G61A, the self-cleavage amounted to 0.26.
Consider C27U U31C U66A U69A U74A, for which the self-cleavage stood at 0.05.
Turning to C27U A64G U72A, the self-cleavage came out at 0.14.
As to A28G A35U A45G, the self-cleavage is 0.13.
A28G C39U U41C A57G C59A U60C: the self-cleavage was found to be 0.14.
Turning to A28G A35U U51C U60A U66C, the self-cleavage was 0.09.
On to A28C U72C U76C, for which the self-cleavage was 0.67.
Take A28G A45U C62U: the self-cleavage worked out at 0.2.
Next, U26C U43C U48C U58C: 0.08; U26G U41C U72A: 0.37.
U26C C32A U69C: the self-cleavage turned out to be 0.06.
With A28G C62U U80C, the self-cleavage turned out to be 0.29.
For the variant A28G A47G U78C, the self-cleavage worked out at 0.3.
As to U26C U66C U72A, the self-cleavage was determined as 0.09.
For U26C C44U G46A U49C, the self-cleavage was 0.2.
A28G G30C A45U U58A U80A: the self-cleavage is 0.37.
Take U26C U48G U74C: the self-cleavage was found to be 0.38.
Next, A28C U49A U51G U54C: 0.15.
Consider A28C G63U U80C, for which the self-cleavage came to 0.62.
For the variant U26C U51A U54C U76A, the self-cleavage worked out at 0.42.
Next, U26C U31A U67A: 0.09.
For U26C U60C U76A U80C, the self-cleavage turned out to be 0.38.
With A28G G42A U43G, the self-cleavage turned out to be 0.26.
On to A28G U31A U41C U43C A64U U80C, for which the self-cleavage was 0.07.
Take A28G C39A U80C: the self-cleavage worked out at 0.29.
For the variant U26G G33A A64U, the self-cleavage amounted to 0.25.
Next, U26C A45U G46A: 0.13.
For the variant U26C A35G U54C C71U A77G, the self-cleavage is 0.23.
In the case of U26C A47C C50A U69A, the self-cleavage worked out at 0.41.
Next, U26G A45C A64G: 0.09; U26C A47G G55A U72C: 0.44; A28G A35C U67C: 0.53.
Next, U26C U41A U48C A57U: 0.1; A28G A35G U41C U48C U60A U67C C71A: 0.17; A28G C39A U41G U74A: 0.46.
Next, A28G A45G U54C U78A: 0.42; U26C A47G U72C: 0.59; A28G A47G U72C U80A: 0.92.
In the case of A28G G36A A64G U76A U78A, the self-cleavage is 0.14.
In the case of U26C U51C A64G U76C, the self-cleavage came out at 0.09.
Turning to U26G U41A A64G, the self-cleavage was 0.21.
For A28G U41A U72A, the self-cleavage was 0.2.
Take U26C A64G U78A: the self-cleavage is 0.56.
Next, A28G U31C A35G C39U U48C U80C: 0.25; A28C C39A U69A: 0.13; A28C A35U A56G: 0.51.
As to U26C A35G U60C, the self-cleavage turned out to be 0.31.
Next, A28G U41C A47G U54A: 0.26; C27U A45G U66A: 0.07.
In the case of C27A A35G A47G, the self-cleavage came to 0.14.
Next, U26C U43C G55C: 0.26; U26G A47U U51C: 0.08.
On to A28G A35G U80A, for which the self-cleavage was 1.24.
As to A28G A35G U80C, the self-cleavage amounted to 1.18.
With A28G G30A U67C, the self-cleavage came to 0.16.
On to U26C A47U U49C U72C U74A, for which the self-cleavage was 0.09.
Next, U26G A57G U60A A77G: 0.11.
Next, A28G U41A A65G U67C C81G: 0.05; A28G A35U U48A: 0.12.
Next, U26C U41C U60A A64G A75G: 0.08; A28G A45U A77G: 0.23; A28G A35U U51A A64U: 0.11.
In the case of A28G A35U C38A, the self-cleavage turned out to be 0.24.
Turning to A28G U31C A57U, the self-cleavage stood at 0.16.
Next, A28G A45U A64G: 0.18; A28G A35G C40U U58C: 0.72.
Regarding A28G A35G U54C U58A U78C, the self-cleavage was determined as 0.5.
Next, C27U A47G A57G: 0.12; A28G A45U A64U A77U: 0.07; U26C G33C U78C: 0.05.
As to A28G A35U U48C A57G, the self-cleavage was 0.2.
For the variant C27U A28G U41C G52A U54C U69A, the self-cleavage is 0.06.
As to U26C U43C U69C, the self-cleavage turned out to be 0.17.
As to U26C A57G U66C, the self-cleavage came to 0.16.
Turning to U26C A45U A57G U69A, the self-cleavage turned out to be 0.08.
Next, C27A U58A C79U: 0.24.
As to U26G U54C A56G, the self-cleavage is 0.1.
Regarding U26C A45U G63U, the self-cleavage was 0.41.
On to U26C C40A U41C, for which the self-cleavage was 0.06.
Turning to U26C G52U A57U G63A A65G U67C, the self-cleavage worked out at 0.12.
Regarding A28C U66C U72C, the self-cleavage stood at 0.18.
Next, C27U U48A A65G U69A U78C: 0.06; U26C C29U U76A U80C: 0.35.
As for U26C A77G U80G, the self-cleavage came to 0.5.
Next, U26C A47G G55A A56G U69A: 0.08; U26C C37U U60C: 0.12.
Next, A28G C59G U60A: 0.1; A28G A47G A64G A77U: 0.52.
Next, A28G U31A U41A U72C: 0.09; A28G C32G A47G U48C U60C: 0.02; A28C U31C C38G U80C: 0.19.
For U26C A56G A65G U80C, the self-cleavage was determined as 0.08.
Regarding U26C A56G U72A, the self-cleavage is 0.25.
Next, U26C A65G U76C: 0.14; C27U U72A C81A: 0.3; A28G C39A U43A U66C: 0.13.
On to U26C U41C U49A U51A, for which the self-cleavage turned out to be 0.24.
For the variant A28G G30U U43A A56U U78A, the self-cleavage came to 0.06.
Next, C27U A45U G70U: 0.07.
Consider C27U G30C C62G, for which the self-cleavage stood at 0.11.
As to U26C U51C U67C U72C, the self-cleavage was determined as 0.15.
As for A28G G63U U67C, the self-cleavage came out at 0.19.
Next, U26G G52C A57G C68U: 0.14; A28C A56G A64U: 0.15; U26C U54C U69A A77U U80A: 0.12.
Regarding C27G U58C U69A A75U, the self-cleavage amounted to 0.12.
Next, C27A A35G G52A U69C: 0.16; U26C G36A A45G U49C U51C A56G A75G: 0.06; U26C G33C C40U: 0.11.
Next, A28C A56U U76C: 0.19; A28G A35C U49C: 0.06.
With U26C G30A A56G U69C U80A, the self-cleavage is 0.14.
With C27U A35U U67C A77U, the self-cleavage is 0.09.
In the case of U26C A45U C59G, the self-cleavage is 0.07.
With U26C C34G A35G U48A U76A, the self-cleavage came out at 0.06.
Next, U26C U48C U69C: 0.26.
Next, U26C U41A U49A U60C U72C U74A U78C: 0.06.
Consider C27A U41A A64G U66C U76A, for which the self-cleavage was 0.07.
Next, U26C A57G G61A: 0.48.
Next, U26C U54C U60C: 0.12.
On to U26C U60A A64U, for which the self-cleavage turned out to be 0.11.
Take U26C U41A U78C: the self-cleavage stood at 0.12.
For A28G U31C U58A, the self-cleavage is 0.38.
Consider A28G A35G A64U, for which the self-cleavage turned out to be 0.74.
As for U26C A45U C79A, the self-cleavage amounted to 0.26.
Next, A28G G52C U54A A56G: 0.44.
For U26C U41A G55U, the self-cleavage was determined as 0.25.
For C27U A28G A35C U54C A56U, the self-cleavage was found to be 0.11.
Next, A28C U41G G42A U49C U51A G63C U66C: 0.04; A28G U31C U67C: 0.09.
Next, U26C U58A C79U: 0.19; U26C U41A U43A G46U: 0.07; A28G U31C C44A U74A: 0.1.
For A28G U31C U41A G53A A64U, the self-cleavage was 0.14.
Regarding U26C A57G U58C A65U U69C, the self-cleavage was 0.07.
As to A28G C39A A56G U60C U67A U78A, the self-cleavage was 0.03.
For A28G A35G C37G U76C, the self-cleavage came out at 0.14.
Next, A28G A35G C39A U60A: 0.12.
For A28C C32U C44A U69A U80C, the self-cleavage was 0.07.
For A28C A35U U76C, the self-cleavage was determined as 0.47.
In the case of A28G A65G U76A, the self-cleavage was 0.24.
Next, U26C U41A G73U: 0.31; A28G A45G A65G: 0.18; U26C A65G C81A: 0.09.
Next, U26C U31C U51C U69G: 0.35.
In the case of U26C G46U A64U, the self-cleavage stood at 0.14.
Take A28G C32U U54A A56U: the self-cleavage was 0.46.
On to U26G A35G A45G U78C, for which the self-cleavage was 0.63.
Regarding U26C C40U A45U A47G A65G, the self-cleavage is 0.26.
Next, A28C A45U A57G: 0.4; U26C G30A U76C: 0.1.
For the variant U26C A35U C40U U69C, the self-cleavage worked out at 0.31.
For U26C U54A A77G U78C, the self-cleavage amounted to 0.41.
Regarding U26C C37U U41A U67G U72C, the self-cleavage turned out to be 0.09.
In the case of U26C U49C A64U U67A, the self-cleavage turned out to be 0.08.
Take A28C C38A U48C U80C: the self-cleavage worked out at 0.12.
For U26C A35U C62U, the self-cleavage came out at 0.16.
Next, A28G G52A U72A: 0.71; U26C U60A U69A: 0.12.

The values above are taken from the RNAGym collection of RNA variant scans (doi:10.1093/nar/gkz1192).
